Measurements from PubChem BioAssay AID1347073 (National Center for Advancing Translational Sciences (NCATS), 2019).
The whole screen tested about 45,000 compounds, of which about 200 (0.44%) were called active. Another 7% or so got no clear call; they are omitted. The call rests on the fitted dose curve; in most records, active means well fitted activation curve with a large enough effect; inconclusive means small, poorly fitted or top-dose-only effect; inactive means no such curve, though single readings can be large or run the other way. Some of the results follow.

Test: qHTS of TDP-43 Inhibitors: NCGC Sytravon Library Screen; further: 0% is about no effect; nearly all actives have a fitted effect of over 55% in size
Details: yeast TDP-43 toxicity rescue, BacTiter-Glo growth, 24 h; series mostly up to 46.1 µM; growth rescue (activation): at the top concentration
Procedure, shortened: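 TDP-43-expressing yeast, pregrown in raffinose, seeded at OD600 0.02 in galactose medium with compound for 24 hr at 30 deg C. Growth read by BacTiter-Glo luminescence, so rescue of toxicity appears as activation.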

| SMILES | growth rescue (activation) |
| --- | --- |
| CC(OC(=O)C1=COCCO1)C(=O)Nc1cccc(S(=O)(=O)N2CCOCC2)c1 (stereo not given) | inactive: 0.0075% |
| CCSC1=N/C(=C\c2ccccc2)C(=O)N1c1ccc(OC)cc1 | inactive: 4.74% |
| COCCNC(=O)C1CCCN(C(=O)c2ccnc(Cl)c2)CC1 (stereo not given) | inactive: 7.11% |
| CC1CC(C)CN(C(=O)C(Cc2ccccc2)n2cccc2)C1 (stereo not given) | inactive: 17.3% |
| O=C(NC1CCCC1)C(c1ccncc1)N(C(=O)Cn1nnc(-c2ccccc2F)n1)c1cccc(F)c1 (stereo not given) | inactive: -1.88% |
| COC(=O)c1ccc(N)nc1 | inactive: 0.557% |
| CN1CCC(NCCC(c2ccc(F)cc2)c2ccc(Cl)cc2)CC1 (stereo not given) | inactive: 7.51% |
| CNC(=O)c1nc(C)n(-c2ccc([N+](=O)[O-])cc2)n1 | inactive: -18.2% |
| O=C(NCCN1CCOCC1)c1ccc2c(c1)N(Cc1ccc(Cl)cc1)C(=O)CS2 | inactive: 12.4% |
| CSc1cccc(NC(=S)N2CCCN(Cc3ccccc3F)C2)c1 | inactive: 12.5% |
| Nc1ccc(Oc2ccc3c(c2)C(=O)N(CC2CCCO2)C3=O)cc1 (stereo not given) | inactive: 36.8% |
| CCCNC(=O)C1(C)CCCN(Cc2ccc(C#N)cc2)C1 (stereo not given) | inactive: 1.04% |
| CCOC(=O)N1CCN(C(=O)C2CCN(S(=O)(=O)c3cc(C)ccc3OC)CC2)CC1 | inactive: -2.12% |
| Cc1cccn2c(=O)c3cc(C(=O)NCCCOC(C)C)sc3nc12 | inactive: 1.33% |
| Cc1ccc(C(=O)N2CCCC(CCC(=O)N3CCN(c4ccccn4)CC3)C2)cn1 (stereo not given) | inactive: -10.4% |
| Cc1nn(-c2ccc(F)cc2)c(Cl)c1/C=C(/CC(=O)O)c1nc2ccccc2s1 | inactive: -87.9% |
| CN(C)NC(=S)NC1(C)CCS(=O)(=O)C1 (stereo not given) | inactive: 6.36% |
| CN(CCc1ccccn1)C(=O)c1ccc(OC(F)(F)F)cc1 | inactive: 2.37% |
| Cc1ccc(CNC(=O)c2ccc(N3Cc4ccccc4Oc4ncccc43)s2)cc1 | inactive: 6.54% |
| Cc1cccc(NC(=O)C2C3C=CC4(O3)C2C(=O)N(CCCN2CCCC2)C4C(=O)NC2CCCC(C)C2C)c1 (stereo not given) | inactive: 9.58% |
| Cc1ccc(C(=O)N/C(=C\c2ccco2)C(=O)N2CCSCC2)cc1C | inactive: 24% |
| O=C(CN1CCN(S(=O)(=O)c2ccccc2)CC1)NC1CC1 | inactive: 6.21% |
| COC(=O)c1ccccc1NC(=O)c1cn(-c2ccc(C)c(C)c2)c(=O)c2ccccc12 | inactive: 15.9% |
| CC(C)CC(=O)Nc1cccc(NC(=O)c2ccccc2Cl)c1 | inactive: 19.3% |
| CN(C)C(=O)COc1ccc(C(=O)/C=C/c2cccnc2)cc1 | inactive: 6.74% |
| CCC(Br)C(=O)Nc1ccc(OC)cc1 (stereo not given) | inactive: 30% |
| COCCNC(=O)C1(C)Cc2c(-c3ccc(NC(C)=O)cc3)ccnc2O1 (stereo not given) | inactive: 0.43% |

| SMILES | growth rescue (activation) |
| --- | --- |
| CCCN1C(=O)c2cc(C(=O)Nc3ccccc3OC)ccc2C1Nc1ccccc1OC (stereo not given) | inactive: 5.35% |
| Fc1ccccc1NC(=S)NNc1ncc(C(F)(F)F)cc1Cl | inactive: 18.1% |
| COc1ccc(NC(=O)c2cccc(N3C(=O)C4C5C=CC(C5)C4C3=O)c2)cc1Cl (stereo not given) | inactive: 1.84% |
| COc1ccccc1C1CC(=O)n2c(nc(-c3ccccc3)c2-c2ccccc2)S1 (stereo not given) | inactive: -29% |
| CCCS(=O)(=O)NC(=O)C1(C)CCCN(C(=O)c2ccc3ccccc3n2)C1 (stereo not given) | inactive: 0.57% |
| O=C(CCNC(=O)c1ccco1)Nc1ccc(F)c(Cl)c1 | inactive: -2.17% |
| O=C(Nc1ccc(SC(F)F)cc1)C12CCC(CC1)C2 | inactive: 8.59% |
| COc1cc(/C=N/n2cnnc2)ccc1OCCSc1ccc(C)cc1 | inactive: 16.4% |
| O=C(NCCN1CCOCC1)c1ccccc1OCc1ccccc1 | inactive: -21.7% |
| OC(c1cccc(Cl)c1)c1nc(-c2cc3ccccc3o2)cs1 (stereo not given) | inactive: -19.1% |
| Cc1ccc(CN2CCN(Cc3ccc(OCCO)cc3)CC2CCO)o1 (stereo not given) | inactive: 11.1% |
| CCOc1ccc(N2C(=O)CN=C2Nc2ccccc2F)cc1 | inactive: 10.7% |
| CCN(c1cccc2ccccc12)S(=O)(=O)c1ccc(Cl)nc1 | inactive: 11.4% |
| CCC(C)(C)NC(=O)C(c1cccc(OC)c1OC)N(Cc1ccccc1)C(=O)CCC(=O)Nc1cc(C)on1 (stereo not given) | inactive: 11.2% |
| CC1CCN(C(=S)c2cccc([N+](=O)[O-])c2)CC1 | inactive: 17.8% |
| CCOC(=O)c1c(NC(=O)/C=C/C(=O)O)sc(C)c1-c1ccc(C)c(C)c1 | inactive: -4.56% |
| CCn1c(C(=O)Nc2cc(Cl)ccc2C)cc2sc(Cl)cc21 | inactive: 0.427% |
| Cc1nn(Cc2ccccc2)c2c1C(c1cccnc1)C(C#N)=C(N)O2 (stereo not given) | inactive: -9.04% |
| O=C(OC1CCCCC1)c1cc2ccccc2oc1=O | inactive: -2.51% |
| N#Cc1ccccc1Sc1ccccc1C(=O)OCC(=O)N1CCN(C(=O)c2ccco2)CC1 | inactive: -3.32% |
| Cc1ccc(-c2nn3c(-c4ccccc4)nnc3c3ccccc23)cc1 | inactive: 0.964% |
| O=C(COc1ccc(Br)cc1F)NC1CC1 | inactive: 32.8% |
| CC(C)CNC(=O)c1cc(=O)[nH]c2ccc(S(=O)(=O)Nc3ccc(F)cc3)cc12 | inactive: 13.2% |
| C=CCN(c1ccccc1)S(=O)(=O)c1cccc(C(=O)Nc2nnc(SCC)s2)c1 | inactive: 5.87% |
| COc1ccccc1-c1cc2nc(NCCc3ccc(S(N)(=O)=O)cc3)ccn2n1 | inactive: 6.42% |
| CNC(=S)Nc1ccc(C(N)=O)cc1 | inactive: 17.5% |
| CCn1c(COc2ccc(C)cc2)nnc1SCC(=O)NNC(=O)c1ccc(OC)cc1 | inactive: 23.2% |

| SMILES | growth rescue (activation) |
| --- | --- |
| COc1ccc(OCC(=O)NC2CCCCCCC2)cc1 | inactive: 18% |
| Cc1ccc(NC(=S)N2CCC(c3ccccc3)C2)c(Cl)c1 (stereo not given) | inactive: 13.4% |
| CC(C)(C)C(=O)Nc1ccc(C(=O)N/N=C/c2ccccc2OC(=O)c2ccc(Cl)cc2)cc1 | inactive: 8.44% |
| COC(=O)CNC(=O)c1ccc2c(c1)S(=O)(=O)c1ccccc1C2=O | inactive: 16.5% |
| CN(C)S(=O)(=O)c1cccc(NC(=S)NC(=O)c2ccco2)c1 | inactive: 23.8% |
| COc1cccc(C(=O)NNC(=O)C(=O)Nc2ccc(OC)cc2OC)c1 | inactive: -5.18% |
| Cc1ccc(C)c2[nH]c(=O)c(CN(Cc3cccs3)C(=S)NCc3ccco3)cc12 | inactive: 4.99% |
| CCOc1ccc(Br)cc1CSC(=N)N | inactive: -3.4% |
| NS(=O)(=O)c1cccc(NC(=O)CC(NC(=O)c2ccccc2Cl)c2ccccc2)c1 (stereo not given) | inactive: 0.299% |
| Cc1cccc2cc(CN(Cc3ccco3)C(=O)c3ccco3)c(=O)[nH]c12 | inactive: -2.35% |
| Cc1cccc(C(=O)N[C@H](C(=O)Nc2nccs2)C(C)C)c1 | inactive: -3.53% |
| N#CCCn1cnc2ccccc21 | inactive: -0.846% |
| Cc1c(N2C(=O)C(=O)/C(=C(/O)c3ccc(Cl)cc3)C2c2ccccc2)c(=O)n(-c2ccccc2)n1C (stereo not given) | inactive: 8.73% |
| CCCCC(=O)Nc1ccc(NC(=O)c2ccc([N+](=O)[O-])cc2Cl)cc1OC | inactive: 21.3% |
| O=C(CCCn1cncn1)N1CCCC(Nc2ccc(F)cc2)C1 (stereo not given) | inactive: 17.8% |
| CC(C)Oc1ccc(/C=C(\NC(=O)/C=C/c2ccco2)C(=O)NCCc2nc3ccccc3[nH]2)cc1 | inactive: 8.74% |
| CC(C)CCn1cnc2c1c(=O)n(CC(=O)NC(N)=O)c(=O)n2Cc1ccccc1 | inactive: 15.5% |
| CCN(CC)S(=O)(=O)c1ccc(C)c(NC(=O)Cn2c(=O)cnc3ccccc32)c1 | inactive: 0.178% |
| COc1ccc(Cl)cc1N/C(N)=N/c1nc(C)cc(=O)[nH]1 | inactive: 2.26% |
| CCCNC(=O)C1(C)CCCN(C(=O)c2cc(C(C)(C)C)nn2C)C1 (stereo not given) | inactive: -0.219% |
| Cc1nn(-c2ccccc2)c(N2CCCC2)c1/C=N/NC(=O)c1cc(-c2cccs2)nc2ccccc12 | inactive: 1.79% |
| CCN(CC)S(=O)(=O)c1cc(NC(=O)CCNC(=O)c2ccco2)ccc1C | inactive: -0.456% |
| O=C(NCCNC(=O)c1ccccn1)c1cccc(F)c1 | inactive: -22.2% |
| CCOC(=O)CNS(=O)(=O)c1cc(-c2n[nH]c(=O)c3ccccc23)ccc1C | inactive: 26.8% |
| CC(=O)N(c1ccc2oc(=O)sc2c1)S(=O)(=O)c1ccc(C(=O)O)cc1 | inactive: 8.78% |
| COc1ccc(/C=C(\C#N)C(=O)Nc2cc(S(=O)(=O)N3CCOCC3)ccc2N2CCCC2)cc1 | inactive: 17.9% |
| COc1cccc(CC(NC(C)=O)C(=O)NC2CCN(C(=O)C3CC3)CC2)c1OC (stereo not given) | inactive: 11.4% |

| SMILES | growth rescue (activation) |
| --- | --- |
| Cn1nc(-c2ccccc2)c(C(=O)NC(C(=O)O)c2ccccc2)c1Cl (stereo not given) | inactive: -2.64% |
| Cc1ccc([N+](=O)[O-])cc1NC(=O)C(Sc1ccccc1)c1ccccc1 (stereo not given) | inactive: 9.6% |
| CC(C)[C@H](NC(N)=O)C(=O)Nc1cccc(S(=O)(=O)N2CCOCC2)c1 | inactive: 9.73% |
| CC1CCCC(C)N1/N=C/c1ccc(C#N)cc1 (stereo not given) | inactive: 6.73% |
| COc1ccc2cc(-c3[nH]ncc3CN3C[C@@H]4CCC[C@H]3C4)ccc2c1 | inactive: 3.26% |
| O=C(/C=C/c1ccccc1)CC(=O)c1ccccc1O | inactive: 11.9% |
| C=CCC(=O)N1CCCC(CNC(=O)c2ccc(-c3ccccc3)cc2)C1 (stereo not given) | inactive: 15.3% |
| CC1=CC(C)(C)N(C(=O)CCl)c2cc(C)ccc21 | inactive: 2.68% |
| Cc1ccc(NC(=O)CCC(=O)c2cccs2)cc1F | inactive: 6.85% |
| COc1ccc([N+](=O)[O-])cc1NC(=O)CCN1CCOCC1 | inactive: 2.21% |
| CCN1C(=O)C2(/C(=C(\O)c3ccc4c(c3)OCCO4)C(=O)C(=O)N2CCCOC)c2ccccc21 (stereo not given) | inactive: -11.1% |
| O=C(O)CSc1nnc(-c2ccc(Cl)cc2Cl)n1-c1ccc(Cl)cc1 | inactive: 18.6% |
| COc1ccc(OCC(=O)Nc2ccc(S(=O)(=O)N3CCCCC3)cc2)cc1 | inactive: 9.07% |
| CCn1c(=O)c([N+](=O)[O-])c(NC2CCS(=O)(=O)C2)c2ccccc21 (stereo not given) | inactive: -9.37% |
| COc1ccc(Cl)cc1NC(=O)COC(=O)Cc1cc(OC)c(OC)c(OC)c1 | inactive: -5.4% |
| CCSc1ncc(Cl)c(C(=O)Nc2ccc(S(N)(=O)=O)cc2)n1 | inactive: 5.43% |
| COc1ccccc1CNC(=O)COC(=O)Cc1ccc(Br)cc1 | inactive: -12.7% |
| CC(c1ccccc1)n1c(SCC(=O)N2CC(=O)Nc3ccccc32)nc2ccccc2c1=O (stereo not given) | inactive: 17.9% |
| COc1ccc(-c2[nH]ncc2CN(C)C(C)c2ccon2)cc1F (stereo not given) | inactive: 6.74% |
| CN(C(=O)c1ccc2c(c1)SC1=NS(=O)(=O)CCN12)C(c1ccccc1)c1ccccc1 | inactive: 21.4% |
| COc1cc2c(cc1OC)CN(CC(=O)Nc1ccccc1C(=O)NCc1ccccc1)CC2 | inactive: -1.33% |
| O=S(=O)(NCCc1nnc2ccc(SCc3cccnc3)nn12)c1ccccc1 | inactive: -1.81% |
| Nc1ccccc1-c1nnc2n1CCCCC2 | inactive: -1.44% |
| O=C(COC(=O)c1ccc(F)cc1Cl)NC1CCCCCCC1 | inactive: -11.7% |
